Data as given in PubChem BioAssay AID1347073 (National Center for Advancing Translational Sciences (NCATS), 2019).
In all, about 45,000 compounds went through this assay and about 200 (0.44%) were called active. Roughly 7% stayed inconclusive and do not appear here. Calls follow the shape of the dose curve; as a rule, active = well fitted activation curve with a large enough effect; inconclusive = small, poorly fitted or top-dose-only effect; inactive = no such curve, though single readings can be large or run the other way. This is one part of the list.

assay: qHTS of TDP-43 Inhibitors: NCGC Sytravon Library Screen; settings: yeast TDP-43 toxicity rescue, BacTiter-Glo growth, 24 h; series mostly up to 46.1 µM; growth rescue (activation): at the top concentration; also: 0% is about no effect; nearly all actives have a fitted effect of over 55% in size
Outline: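 TDP-43-expressing yeast, pregrown in raffinose, seeded at OD600 0.02 in galactose medium with compound for 24 hr at 30 deg C. Growth read by BacTiter-Glo luminescence, so rescue of toxicity appears as activation.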

Row | SMILES | growth rescue (activation)
1 | Cc1ccc(C2=Nc3ccccc3N=C(c3ccco3)C2)c(O)c1 | inactive: 11%
2 | N#CCCN(C(=O)Nc1ccc(Cl)c(Cl)c1)c1ccccc1 | inactive: 23.7%
3 | CC1CCCN(C(=O)COC(=O)COc2ccc(Cl)cc2)C1 (centres undefined) | inactive: -7.49%
4 | Cc1ccccc1-n1c(SCC(=O)c2c(N)n(C)c(=O)n(C)c2=O)nnc1-c1cccnc1 | inactive: 0.682%
5 | COC(=O)c1ccccc1NC(=O)CNC(=O)c1ccc(OC)cc1 | inactive: 5.19%
6 | CCCn1cc(CN2CCCC(CNC(=O)c3ccc(F)cc3)C2)c(C)n1 (centres undefined) | inactive: 10.9%
7 | CCc1ccc(/C(C)=N/NC(=O)CNC(=O)/C=C/c2ccccc2OC)cc1 | inactive: 21.8%
8 | Cc1c(NP(=O)(c2ccc(Br)cc2)c2ccc(Br)cc2)c(=O)n(-c2ccccc2)n1C | inactive: 15.6%
9 | C=CCn1c(N)c(C(=O)OC(C)(C)C)c2nc3ccccc3nc21 | inactive: 30.6%
10 | O=C1CC2c3ccccc3C1C1C(=O)N(CCO)C(=O)C21 (centres undefined) | inactive: -10.1%
11 | O=C(CN1C(=O)NC2(CCCCC2)C1=O)Nc1ccc2c(c1)CCC2 | inactive: 3.82%
12 | CCOc1ccccc1OCCCC(=O)OCC(=O)Nc1cccc(Cl)c1 | inactive: -2.1%
13 | O=C(NCCCN1CCOCC1)C(=O)N/N=C/c1ccccc1O | inactive: -10.2%
14 | COc1ccc(C2c3ccc(O)cc3Oc3ncn4nc(-c5ccco5)nc4c32)cc1OC (centres undefined) | inactive: 19.1%
15 | O=C(NC(c1ccc(Cl)cc1)c1ccsc1)C1CCN(Cc2cccc(C(F)(F)F)c2)CC1 (centres undefined) | inactive: 1.45%
16 | CCCc1cc(C(=O)OC)c(NC(=O)CCCC(=O)O)s1 | inactive: 21.4%
17 | CNC(=S)N1CCc2ccccc2C1 | inactive: 0.546%
18 | O=C(NCCC(=O)N(Cc1ccco1)Cc1cccs1)c1ccc([N+](=O)[O-])cc1 | inactive: -0.069%
19 | O=[N+]([O-])c1ccc(N=Nc2ccc(O)cc2O)cc1 | inactive: 9.11%
20 | COc1ccc(CNCCNC(=O)c2cccs2)cc1OC | inactive: 9.91%
21 | O=C(COC(=O)c1cnccn1)c1ccccc1 | inactive: 40.5%
22 | O=C(COC(=O)CCSc1ccccc1)Nc1ccc(F)cc1Cl | inactive: -10.2%

Row | SMILES | growth rescue (activation)
23 | Cn1c(SCC(=O)Nc2sccc2C(N)=O)nc2ccccc2c1=O | inactive: 10.1%
24 | O=C(NCCC(F)(F)F)C1Cc2c(-c3cccc(F)c3)ccnc2O1 (centres undefined) | inactive: 2.59%
25 | CCc1nc2sc(C(=O)O)c(N)c2c2c1CCCC2 | inactive: -4.63%
26 | COCCNC(=O)C1(C)CCN(C(=O)c2cccc(C)c2C)C1 (centres undefined) | inactive: -3.07%
27 | O=C(O)c1ccc(N/N=C/c2ccc3ncccc3c2)cc1 | inactive: 15.2%
28 | CC(=O)Nc1nc(C)c(Cc2ccccc2)c(=O)[nH]1 | inactive: 0.385%
29 | O=[N+]([O-])c1ccc(O)c(Nc2ncnc3ccc(Br)cc23)c1 | inactive: -9.28%
30 | Nc1ccccc1OCCOCCOc1ccccc1N | inactive: -17%
31 | Cc1cc2ccccc2n2c(SCC(=O)N3CCOCC3)nnc12 | inactive: -5.37%
32 | CCOc1nc(C#N)nc(N2CCCCC2)n1 | inactive: 22%
33 | Cc1ccc(S(=O)(=O)/N=C2\C=C(Nc3ccc(O)cc3)C(=O)c3ccccc32)cc1 | inactive: 4.46%
34 | N#Cc1cc(Nc2c(N)nc[nH]c2=O)c([N+](=O)[O-])cc1C#N | inactive: -15.3%
35 | Cc1cccc(NC(=O)CCC(=O)N/N=C/c2cc([N+](=O)[O-])ccc2O)c1 | inactive: 8.74%
36 | Cc1ccc2nc(NC(=O)c3ccc(N4C(=O)CCC4=O)cc3)sc2c1 | inactive: 10.8%
37 | CN1CCC(N(C)C(=O)/C(C#N)=C\c2ccc(OC(F)F)cc2)CC1 | inactive: -14.6%
38 | Cc1ccccc1N(C(=O)CS(=O)CC(=O)Nc1ccc(F)cc1)C(C)C(=O)NC(C)(C)C (centres undefined) | inactive: -2.91%
39 | O=C(Nc1nc2ccccc2[nH]1)c1cccc(S(=O)(=O)N2CCOCC2)c1 | inactive: -9.65%
40 | COc1ccc(CCNCC(O)COc2cccc(C(C)=O)c2)cc1OC (centres undefined) | inactive: -2.64%
41 | CC(C)(C)c1ccc(CC(=O)N2CCC2(C)C(=O)NS(=O)(=O)c2cccc(Cl)c2)cc1 (centres undefined) | inactive: 22.1%
42 | O=[N+]([O-])c1cccc(NC(=S)NCc2ccncc2)c1 | inactive: 10.4%
43 | COc1ccc2[nH]cc(CCN3C(=O)c4ccc(C(=O)O)cc4C3=O)c2c1 | inactive: -6.18%
44 | CC(C)C(=O)Nc1nnc(SCC(=O)NC2CCCC2)s1 | inactive: -6.37%

Row | SMILES | growth rescue (activation)
45 | Cc1ccc(OCC(=O)N/N=C\c2cccn2C)c([N+](=O)[O-])c1 | inactive: 1.59%
46 | N#CCCN(C(=O)COC(=O)c1ccc2c(c1)OCCO2)c1ccccc1 | inactive: 3.41%
47 | O=C(OCc1ccccc1)C1=NNC2C(=O)N(Cc3ccccc3)C(=O)C12 (centres undefined) | inactive: 6.22%
48 | Cc1cccc(C(=O)Nc2ccc(O)cc2C(=O)O)c1 | inactive: 1.36%
49 | CS(=O)(=O)c1ccc(S(=O)CC(=O)Oc2ccc(Cl)cc2)c([N+](=O)[O-])c1 (centres undefined) | inactive: -5.87%
50 | Cc1ccc(S(=O)(=O)Nc2c(C)nc3nc(C)[nH]n3c2=O)cc1 | inactive: -20.7%
51 | O=C(COC(=O)CCC(=O)c1ccc(Cl)cc1)NCc1ccco1 | inactive: 1.43%
52 | COc1ccc(CCN(C)C(=O)C2CCCN(Cc3ccc(OC)c(OC)c3)C2)cc1OC (centres undefined) | inactive: -9%
53 | N#C/C(=N\Nc1cccc(F)c1)C(=N)N1CCCCCC1 | inactive: 9.43%
54 | CC(C)(C)n1nc2c(c1NC(=O)c1cccs1)CS(=O)C2 (centres undefined) | inactive: 37.3%
55 | O=C(CN1CCN(c2ccccc2F)CC1)NC(=O)NC1CCCCC1 | inactive: 5.65%
56 | Cc1cc(C(=O)O)ccc1-c1ccc(CO)o1 | inactive: 6.35%
57 | CCCCOCCCNC(=O)c1ccc([N+](=O)[O-])c(C)c1 | inactive: 22.8%
58 | O=C(Cc1ccc(F)cc1)N/N=C/c1ccc(-c2ccc(Cl)c(C(=O)O)c2)o1 | inactive: -7.09%
59 | Cc1ccc(NS(=O)(=O)c2ccc(N/N=C/c3ccncc3)c([N+](=O)[O-])c2)c(C)c1 | inactive: -16.6%
60 | Cc1ccc2c(C)nc(SC(C(=O)c3ccccc3)c3ccccc3)nc2c1 (centres undefined) | inactive: 9.4%
61 | CCOc1cc(C=C(C(=O)OC)C(=O)OC)ccc1OCc1ccc([N+](=O)[O-])cc1 | inactive: -10.7%
62 | COc1ccc(Nc2nc(N)nc(CN3CCN(c4ccc(F)cc4)CC3)n2)cc1 | inactive: -3.36%
63 | COC(=O)c1nc2n(n1)C(c1ccccc1OC)C1=C(CCCC1=O)N2 (centres undefined) | inactive: 0.682%
64 | O=C1C=C(Nc2ccccc2)c2ccccc2C1=O | inactive: 2.17%
65 | O=C(CN1C(=O)CCC1=O)Nc1nc(-c2cccs2)cs1 | inactive: -11.1%
66 | O=C(Nc1ccncc1)c1ccc(C(=O)Nc2ccncc2)cc1 | inactive: 11.4%

Row | SMILES | growth rescue (activation)
67 | O=C(O)CCCNC(=O)c1ccccn1 | inactive: -4.43%
68 | CC1CCN(C(=O)c2cc(-c3ccco3)on2)CC1 | inactive: 12.1%
69 | Cc1cc(NC(=O)CSc2nc(C)c(C)n2CC(C)C)no1 | inactive: -10.6%
70 | O=C(COc1ccc(F)cc1)NCCCn1ccnc1 | inactive: 14.7%
71 | CCn1c(CNC(=O)Cc2ccc(OC)cc2)n[nH]c1=S | inactive: 4.75%
72 | CC(=O)Nc1cccc(NC(=O)COc2ccc3c(c2)OCO3)c1 | inactive: -17.2%
73 | CC(=O)Nc1cccc(NC(=S)Nc2ccc(F)cc2F)c1 | inactive: 9.86%
74 | Cn1cccc1C1C(C#N)=C(N)OC2=C1C(=O)CCC2 (centres undefined) | inactive: -0.225%
75 | CCC1CCCCN1S(=O)(=O)c1ccc(NC(=O)c2nc(S(C)(=O)=O)ncc2Cl)cc1 (centres undefined) | inactive: 22.6%
76 | Cc1ccc(NC(=S)NC(=O)/C=C/c2ccc(Cl)cc2)cc1 | inactive: 13%
77 | COc1ccccc1Oc1ccc(NC(=O)c2ccccc2)cc1 | inactive: 10.2%
78 | CC(=O)Nc1ccc(S(=O)(=O)N2CCN(C(=O)c3ncoc3-c3ccc(F)cc3)CC2)cc1 | inactive: 6.27%
79 | Brc1ccc(-c2noc(C3CCCCC3)n2)cc1 | inactive: 2.63%
80 | CSc1ccc(CN2CCC(C)(Oc3ccc(CC#N)cc3)C2)cc1 (centres undefined) | inactive: 7.75%
81 | CCOc1ccccc1/C=C/c1cc(C(=O)O)c2ccccc2n1 | inactive: -0.444%
82 | Cc1ccc(NC(=O)Cc2sc(C)nc2-c2ccc(C)cc2)cc1 | inactive: -12.4%
83 | O=C(CCN1C(=O)c2ccccc2C1=O)Nc1ccc(-c2nc3ccccc3s2)cc1 | inactive: 3.07%
84 | O=C(CN(Cc1ccc(F)cc1)C(=O)CCC(=O)Nc1ccccn1)NCc1ccc(F)cc1 | inactive: 0.429%
85 | COc1ccc(NC(=O)C2=C(C)NC(=S)NC2c2ccc(O)c(OC)c2)cc1 (centres undefined) | inactive: -0.0271%
86 | Cc1cc(C)cc(OCCNC(=O)C(C)N2C(=O)c3ccccc3C2=O)c1 (centres undefined) | inactive: 3.38%
87 | O=C(NN=C1CCCC1)c1ccn[nH]1 | inactive: -5.76%
88 | CC(C)(CSc1ncccn1)NS(=O)(=O)c1ccccc1 | inactive: -3%

Row | SMILES | growth rescue (activation)
89 | Cc1ccc(-c2cc(C(=O)Nc3ccc(S(=O)(=O)N4CC(C)OC(C)C4)cc3)[nH]n2)c(O)c1 (centres undefined) | inactive: 10.7%
90 | COc1ccc(C2(C)NC(=O)N(CC(=O)Nc3ccc(-c4nc5ccc(C)cc5s4)cc3)C2=O)cc1 (centres undefined) | inactive: -16%
91 | Cc1ccccc1OCC(=O)Nc1ccc(N2CCN(C)CC2)c(Cl)c1 | inactive: 7.2%
92 | CC1(NC(=S)Nc2ccc3ccccc3c2)CCS(=O)(=O)C1 (centres undefined) | inactive: 14.9%
93 | CC12C(=O)N(c3ccc(OC(=O)c4ccco4)cc3)C(=O)C1C1c3ccccc3C2c2ccccc21 (centres undefined) | inactive: 6.74%
94 | COc1ccc(NC(=O)c2ccc3nc[nH]c3c2)c(OC)c1 | inactive: 3.98%
95 | COCCn1c(-c2ccc(OC)cc2)cnc1SCC(=O)Nc1ccc(OC)cc1OC | inactive: -2.89%
96 | O=C(CCc1ccccc1)Nc1cc(S(=O)(=O)N2CCOCC2)ccc1N1CCCC1 | inactive: -10.2%
97 | COc1ccc(OC)c(NC(=O)C2Cc3ccccc3CN2S(=O)(=O)c2ccc(F)cc2)c1 (centres undefined) | inactive: 26.8%
98 | COc1ccc(N2CCN(c3ccc(C(N)=O)cc3[N+](=O)[O-])CC2)cc1 | inactive: 11.5%
99 | Cc1ccc(N(Cc2cc3cc(C)ccc3[nH]c2=O)S(=O)(=O)c2ccccc2)cc1 | inactive: -29.2%
100 | CC(NC(=O)c1ccccc1)C(=O)N/N=C/c1ccco1 (centres undefined) | inactive: -7.42%
101 | CCOC(=O)C1CCCN(C(=O)c2cc(-c3ccc(F)cc3)nc3ccccc23)C1 (centres undefined) | inactive: -9.73%
102 | CC(=O)N(c1ccccc1)c1nc(/C=C/C(=O)O)cs1 | inactive: 1.08%
103 | COc1ccc(/C=C/C(=O)NCCC(=O)N2CCCN(C)CC2)cc1 | inactive: 11.5%
104 | Oc1ccccc1CNc1ccc2c(c1)OCCO2 | inactive: 1.38%
105 | CC(=O)N1CCN(C2c3cccc4cccc(c34)C2NS(=O)(=O)c2ccccc2)CC1 (centres undefined) | inactive: 7.35%
106 | Cc1ccc(-c2[nH]ncc2CN2CCN(C(=O)c3cccs3)CC2)cc1C | inactive: -1.04%
107 | Cc1ccccc1-c1nnc(SCC(=O)Nc2cccnc2Cl)o1 | inactive: 2.11%
108 | O=C(Cc1ccccc1)NCC(=O)N1CCC1 | inactive: -18.3%
109 | COc1ccc(C(=O)O)cc1S(=O)(=O)NCc1ccncc1 | inactive: -3.1%
